Measurements as given in patent publication US20050282216A1 (Sanofi, published 2005).

Target: T1, human IL-13Rβ (human, UniProt Q14627 27-380)
T1 construct: Polypeptide of 380 amino acids; It stood natively on Caki-1 cells and recombinantly on COS-7 and CHO cells; also called hIL-13Rβ; cloned receptor
T1 sequence: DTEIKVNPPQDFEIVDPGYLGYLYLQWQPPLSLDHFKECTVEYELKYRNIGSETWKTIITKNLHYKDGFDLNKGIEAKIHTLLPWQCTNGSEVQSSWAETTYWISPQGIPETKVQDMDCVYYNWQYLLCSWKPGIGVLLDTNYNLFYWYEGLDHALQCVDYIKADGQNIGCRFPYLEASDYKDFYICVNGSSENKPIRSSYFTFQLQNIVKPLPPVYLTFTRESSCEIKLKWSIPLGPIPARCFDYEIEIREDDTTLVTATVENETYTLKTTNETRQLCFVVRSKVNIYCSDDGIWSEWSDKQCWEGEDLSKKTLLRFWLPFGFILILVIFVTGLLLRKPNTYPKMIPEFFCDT
Assay: competition with labelled IL-13 on COS-7 cells transfected with IL-13Rβ cDNA

- Ki: 1.5 nM
B1: IL-13 (unlabelled) (ligand)
chain: not shown
notes: also called interleukin-13; unlabelled IL-13
